# Measured values taken from PubChem BioAssay AID1347120 (National Center for Advancing Translational Sciences (NCATS), 2019).
# Values joined by “and” are separate entries in the source; they are usually repeats but may differ in a detail not shown here. Equal values may be shown once. Out of some 390,000 compounds screened, about 930 (0.24%) were called active. Inconclusive results, whose numbers are uncertain, are shown with a selection of clear calls. Calls follow the shape of the dose curve; as a rule, active = well fitted activation curve with a large enough effect; inconclusive = small, poorly fitted or top-dose-only effect; inactive = no such curve, though single readings can be large or run the other way. Where the call is inconclusive, the potency comes from a doubtful curve fit.
# Test: qHTS for Suppressors of FUS Proteinopathy: Primary screen using FUS-linked yeast assay; also: nearly all actives have a fitted effect of over 55% in size;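 as to growth rescue (activation): plate controls were DMSO vehicle for no effect and reference control for full effect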
# Conditions: S. cerevisiae FUS-expressing, OD600, 24 h; Potency: growth rescue; growth rescue (activation): at 76.6 µM (top of the series)
# Source text: Several widespread neurodegenerative diseases, including Alzheimer disease, Huntington disease, Frontotemporal Lobar Degeneration (FTLD) and Amyotrophic Lateral Sclerosis (ALS), share a common pathological feature, namely accumulation of specific protein aggregates in diseased tissue. These diseases which is associated with protein misfolding (proteinopathies) have become increasingly problematic as the population ages and life expectancies are extended. Most proteinopathies are currently incurable, a situation confounded by the fact that the basis of neurodegeneration is generally poorly understood. There exists urgent and significant need to find therapeutics that can inhibit the toxicity associated with protein aggregation. A novel approach to understand the underlying mechanisms of neurodegenerative diseases has recently emerged in which the disease conditions are modeled in the yeast (Saccharomyces cerevisiae), a tractable eukaryotic organism with conserved protein quality control mechanisms. Yeast offers quick and reliable genetic manipulations and can be easily tailored to high-throughput screening (HTS).
# For this project, a yeast model of the FUS proteinopathies (a spectrum of neurodegenerative diseases that include ALS and a subtype of FTLD) was generated and employed. The cytoplasmic accumulation of the DNA/RNA-binding protein FUS (also known as TLS) is causative to both familial and sporadic forms of ALS and FTLD. This yeast model recapitulates neuronal pathology by showing severe cytotoxicity associated with cytoplasmic accumulation of FUS aggregates and a specific interaction between FUS and TDP-43, another ALS-associated protein. […] Specifically, the cellular accumulation of misfolded FUS that disrupts RNA homeostasis in both yeast and higher eukaryotes. This model was validated to be suitable for quantitative HTS (qHTS) use for finding genetic or chemical factors that restore growth. […] Identified compounds that inhibits FUS-yeast toxicity is flagged, re-acquired, and validated for further investigation and optimization.
# NIH Chemical Genomics Center [NCGC]
# NIH Molecular Libraries Probe Production Centers Network [MLPCN]
# Assay Submitter (PI): Frank Shewmaker PhD, Uniformed Services University of the Health Sciences
# Compound CP55940 was used as the positive control. Column 1 was treated with CP55940 titration from 92uM (final concentration, 1:2 dilution), while Column 2 was treated with top dose 92uM. Columns 3 and 4 were treated with DMSO only as negative control to assess background and noise signal.
# Four hundred fifty microliter of cultured yeast (in 20mL rich medium) provided by Dr. Shewmaker lab was incubated at 30C at 99% humidity for 3hr. The culture was then spun down at 4000rpm for 5min and the cell pellet was resuspended in 2mL of Sdmin Media + ALU(330) + 2.5% Raffinose. One hundred microliter of the suspension was added to 900uL of water and OD of the solution was obtained. Twenty mL of responding medium (provided by Shewmaker lab) + 2.5% raffinose was added to ensure cell density of 0.1; the solution was incubated overnight. Working cell solution (FUS-yeast in Sdmi + Sdmi + 1X ALU + 2% galactose media) was prepared (final OD at 0.005) and 3uL was dispensed in a 1536-well Aurora high based clear bottom assay plates. Controls and library compounds (at various final concentrations from 40uM to 0.32uM) were added using a 1536-well pin array using the Kalypsys pin-tool. The plates were then incubated for 24hrs in a cell-culture incubator (30C; 99% humidity). Absorbance at 600nm was then read using the PerkinElmer ViewLux plate reader.
# Potency is read from the fitted curve at half-maximal effect; tags tell the direction and shape of the fitted curve.
SMILES,Potency,growth rescue (activation)
N#CCc1c(C#N)c(N)nc(N2CCN(S(=O)(=O)c3ccccc3F)CC2)c1C#N,"inconclusive: 17.8 µM [activator, partial curve, poor fit]",
O=C(CSc1nc2ccccc2nc1Cc1ccc(Cl)cc1)N1CCCCC1,"inconclusive: 28.2 µM [activator, single point]",
CSc1ccc(CNC(=O)C2Cc3cc(S(=O)(=O)N4CCCC4)ccc3N2C(C)=O)cc1 (stereo not drawn),"inconclusive: 35.5 µM [activator, single point]",
COC(=O)c1c(NC(=O)CN2CCN(c3ncccn3)CC2)sc(C(N)=O)c1C,"inconclusive: 39.8 µM [activator, partial curve, poor fit]",
CCc1cccc(NC(=O)Cn2c(-c3ccc(F)cc3)cc(C(C)=O)c2C)c1,"inconclusive: 31.6 µM [activator, single point]",
O=C(c1ccc2c(c1)N(Cc1ccccc1Cl)C(=O)c1ccccc1S2)N1CCCC1,"inconclusive: 22.4 µM [activator, single point]",
CSc1ccc(C2C(C#N)=C(N)N(c3ccccc3)C3=C2C(=O)CCC3)cc1 (stereo not drawn),"inconclusive: 28.2 µM [activator, partial curve]",
Cc1cccc(C)c1NC(=O)C1CCN(c2ncccn2)CC1,,inactive: 11.4%
CC(C)(C)C(O)CN1CCCC1 (stereo not drawn),"inconclusive: 0.891 µM [activator, full curve, poor fit]",
Cc1cccc(-c2nnc(SCC(=O)Nc3cccc4ccccc34)n2Cc2ccco2)c1,"inconclusive: 15.8 µM [activator, partial curve]",
COc1ccc(CN2C(=O)c3cccnc3C2=O)cc1S(=O)(=O)NCc1ccccc1,,inactive: 7.69%
Cc1ccc(Cl)cc1-c1cc(C(=O)NCc2ccco2)[nH]n1,,inactive: -10.8%
COC(=O)Cn1c(C(=O)N2CCCC2)cc2c1C[C@H]1CN(C(=O)c3ccccc3)[C@@](Cc3ccc(OC)cc3)(C(=O)OC)[C@@H]21,"inconclusive: 11.2 µM [activator, partial curve, poor fit]",
CN(C(=O)c1ccco1)c1nc(CC(=O)Nc2ccccc2)cs1,"inconclusive: 0.794 µM [activator, partial curve, poor fit]",
CC1C(=O)N(Cc2cn(Cc3ccco3)nn2)CCS(=O)(=O)N1Cc1ccc(-c2ccccc2)cc1 (stereo not drawn),"inconclusive: 50.1 µM [activator, single point]",
CCc1ccc(OCC(=O)NNC(=O)c2cc(S(=O)(=O)N3CCOCC3)ccc2N2CCCC2)cc1,"inconclusive: 50.1 µM [activator, single point]",
COc1ccc(C2CC(O)(c3ccccc3)Oc3c(C)ccc(C)c32)cc1 (stereo not drawn),"inconclusive: 31.6 µM [activator, single point]",
Cc1ccc(C(=O)N2CCC(C(=O)c3c(C)cc(C)cc3C)CC2)cc1,"inconclusive: 35.5 µM [activator, partial curve, poor fit]",
Cc1nn(-c2ccccc2)c(C)c1/C=N/NC(=O)c1ccccc1NS(=O)(=O)c1cccs1,"inconclusive: 8.91 µM [activator, full curve, poor fit]",
COc1ccc(N2CC(C(=O)Nc3cc(C(F)(F)F)ccc3N3CCCC3)CC2=O)c(OC)c1 (stereo not drawn),"inconclusive: 22.4 µM [activator, single point]",

SMILES,Potency,growth rescue (activation)
CCOC(=O)N1CCN(C(=O)C[C@H]2C(=O)N(Cc3ccc(OC)cc3)C3=CCCC[C@@]32C(=O)OCC)CC1,,inactive: 26.3%
COC(=O)[C@]12CCCCC=C1N(CCC1=CCCCC1)C(=O)[C@H](CC(=O)NCc1cccc3ccccc13)C2,"inconclusive: 50.1 µM [activator, single point]",
CCn1cc(C(=O)OCC(=O)Nc2cccc(Cl)c2C)c(=O)c2ccc(C)nc21,,inactive: -10.5%
Clc1ccc(-n2ncc3c(NCc4ccco4)ncnc32)cc1,,inconclusive: 55.1% [activator]
COc1cc(C(=O)Nc2ccc(Cl)c(-c3nc4ncccc4o3)c2)cc(OC)c1OC,"inconclusive: 50.1 µM [activator, single point]",
CCOc1cccc(CC(=O)N2CCc3c([nH]c4ccccc34)C2c2ccc(C)cc2)c1OCC (stereo not drawn),,inactive: 43.3%
COc1ccc(C(=O)Nc2ccc3c(c2)N(C2CCCC2)C(=O)c2ccccc2S3)cc1OC,,inactive: 35.3%
COC(=O)c1c(SC)nc2ccccc2c1OCc1ccc(C)cc1C,,inactive: 1.02%
CC(NS(=O)(=O)c1cccc(Cl)c1)C(=O)Nc1ccc(-c2nc3ccccc3s2)cc1 (stereo not drawn),,inactive: 0.664%
O=C(C1CCCN(S(=O)(=O)c2ccc(Br)s2)C1)N1CCCCCC1 (stereo not drawn),,inactive: 3.86%
COc1ccccc1-c1ccc([C@@H]2C[C@H]3[C@H](CON3C)CN2C(=O)c2ccc(-c3ccccc3)cc2)cc1,"inconclusive: 12.6 µM [activator, partial curve]",
CCCCC[C@@H]1[C@H]2[C@H]3C(=O)N(c4ccccc4)C(=O)[C@H]3CC(=O)[C@H]2[C@H](c2ccccc2)N1S(=O)(=O)c1ccc(C)cc1,"inconclusive: 31.6 µM [activator, single point]",
C[C@@]12C(=O)N(c3cccc(F)c3)C(=O)N1[C@@H]1c3ccccc3OC[C@@H]1[C@H]2c1ccccc1,"inconclusive: 25.1 µM [activator, partial curve]",
COc1ccc(S(=O)(=O)NC2(C(F)(F)F)NC(=O)N(CCc3ccc(OC)c(OC)c3)C2=O)cc1 (stereo not drawn),inactive,
COc1cccc(NC(=O)COC(=O)c2c(C)nn(-c3ccccc3)c2C)c1,"inconclusive: 28.2 µM [activator, single point]",
COc1ccc(S(=O)(=O)Nc2ccc3c(c2)C(=O)N([C@H](C)CO)C[C@H](C)[C@@H](CN(C)C(=O)Nc2ccc(C(F)(F)F)cc2)OCCCC[C@H](C)O3)cc1,"inconclusive: 17.8 µM [activator, partial curve, poor fit]",
Cn1c(Cc2cccs2)nnc1SCC(=O)Nc1ccc(OCc2ccccc2)cc1,"inconclusive: 22.4 µM [activator, single point]",
COc1cc(C2C(C(=O)OC(C)C)=C(C)N=C3SCCC(=O)N32)ccc1OCc1ccccc1 (stereo not drawn),"inconclusive: 12.6 µM [activator, partial curve, poor fit]",
COC(=O)c1cc(NS(=O)(=O)c2ccc(NC(C)=O)cc2)ccc1Cl,"inconclusive: 50.1 µM [activator, single point]",
CCN(CC)S(=O)(=O)c1ccc(N2CCOCC2)c(NC(=O)c2cccc3ccccc23)c1,"inconclusive: 31.6 µM [activator, partial curve]",

SMILES,Potency,growth rescue (activation)
CC(C)CC1Nc2ncnc(N3CCN(c4ccccc4)CC3)c2N(Cc2ccccc2)C1=O (stereo not drawn),"inconclusive: 25.1 µM [activator, partial curve, poor fit] and inconclusive: 25.1 µM [activator, single point]",
COc1ccc(NC(=O)CC(C)c2ccccc2)c([N+](=O)[O-])c1 (stereo not drawn),,inactive: -9.54%
O=C(Nc1ccc2oc(-c3ccncc3)nc2c1)c1c(F)c(F)c(F)c(F)c1F,,inactive: 1.77%
CC(C)C[C@H]1CNC(=S)N1CC1CCCN1C[C@H](Cc1ccccc1)N1C[C@H](Cc2ccccc2)N(CC2CCCCC2)C1=S (stereo partly drawn),"inconclusive: 28.2 µM [activator, partial curve]",
CN(C)c1ccc(C(CNS(=O)(=O)c2ccc(F)c(F)c2)c2c[nH]c3ccccc23)cc1 (stereo not drawn),"inconclusive: 14.1 µM [activator, partial curve, poor fit]",
CCCCCCCCN1C(=O)[C@H](CC(=O)NCc2cccs2)C[C@@]2(C(=O)OC)CC(C)(C)CC=C12,,inactive: 30.7%
COc1ccc(CCNc2ncnc3c2c(-c2ccccc2)cn3-c2cccc(Cl)c2)cc1OC,"inconclusive: 31.6 µM [activator, partial curve]",
N#CC1=C(N)NC(SCC(=O)Nc2ccccc2)=C(C#N)C12CCCCC2,"inconclusive: 31.6 µM [activator, partial curve, poor fit]",
CC(C)(C)c1ccc(OCC(=O)NCc2ccco2)c(Br)c1,"inconclusive: 50.1 µM [activator, single point]",
CCOC(=O)c1c(NC(=O)CSc2cn(CCNC(=O)c3ccccc3OC)c3ccccc23)sc2c1CCCC2,"inconclusive: 50.1 µM [activator, single point]",
OC(c1ccc(F)c(F)c1)c1nc(-c2ccccc2)cs1 (stereo not drawn),,inactive: -17%
CC(C)CN(C(=O)COC(=O)CN1C(=O)c2ccccc2C1=O)c1c(N)n(Cc2ccccc2)c(=O)[nH]c1=O,"inconclusive: 50.1 µM [activator, single point]",
OC(c1cccnc1)c1nc(/C=C/c2ccc(C(F)(F)F)cc2)cs1 (stereo not drawn),,inactive: 22%
CCOC(=O)CCc1c(C)c2ccc(OCc3nn[nH]n3)c(C)c2oc1=O,"inconclusive: 31.6 µM [activator, partial curve, poor fit]",
COc1ccc(Cn2c(SCC(=O)Nc3ccc(OC)cc3)nc3ccccc32)cc1,"inconclusive: 7.94 µM [activator, full curve, poor fit]",
COC(=O)[C@]12C[C@H](CC(=O)N3CCSCC3)C(=O)N(CCc3ccc(OC)c(OC)c3)C1=C[C@H](COCc1ccccc1)O[C@@H]2C,"inconclusive: 15.8 µM [activator, partial curve]",
O=C(NCc1ccccc1)c1ccc2c(c1)N(Cc1cccc(Cl)c1)C(=O)c1ccccc1S2(=O)=O,"inconclusive: 35.5 µM [activator, partial curve, poor fit]",
Cc1ccc2c(C)c(C(=O)N(Cc3ccc(N(C)C)cc3)C3CCS(=O)(=O)C3)oc2c1 (stereo not drawn),"inconclusive: 28.2 µM [activator, partial curve]",
